The values below come from PubChem BioAssay (NCI).

One assay has as its system NCI-H460 lung. The experiment in a line: NCI-60 cell line screen, 48 h.
The test system of another assay is HCT-15 colon. The assay can be described thus: NCI-60 cell line screen, 48 h.

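Following 48 hours of exposure in 96-well plates, responses at five concentrations were used to interpolate endpoints linearly. The concentration for full growth arrest is given as TGI.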 A number of entries come with more than one value. Only these are listed. The source may hold further records. A record mostly stands for its own series of concentrations, which the source does not state; some values may only mark the edge of a range.

For `CN(C)CCCCCNc1c2ccccc2nc2cccc([N+](=O)[O-])c12`, the TGI with NCI-H460 lung is 3.1 nM, 0.956 nM, 12.1 nM; in the assay on HCT-15 colon, 8.7 nM and > 100 nM.
